PubChem BioAssay AID1671188 (National Center for Advancing Translational Sciences (NCATS), 2021)
The whole screen tested about 100,000 compounds, of which about 250 (0.25%) were called active. Inconclusive means that the source gave no clear call. Such entries were picked first, then a sample of the others. The call rests on the fitted dose curve; in most records, active means well fitted inhibition curve with a large enough effect; inconclusive means small, poorly fitted or top-dose-only effect; inactive means flat fitted curve, though single readings scatter. No potency is given beside an inconclusive call; the fits are too rough.

target: Alanine aminotransferase 2 (Homo sapiens) (UniProt Q8TD30); assay: Primary qHTS assay for inhibitors of Glutamate pyruvate transaminase 2 (GPT2); details: Recombinant GPT2, coupled pyruvate oxidase/HRP Amplex Red fluorescence; activity change, negative = inhibition: at 57.7 µM (top of the series) unless noted; series mostly up to 57.7 µM; further: nearly all actives have a fitted effect of over 60% in size
Chain of UniProt Q8TD30 (Q8TD30 whole entry, looked up): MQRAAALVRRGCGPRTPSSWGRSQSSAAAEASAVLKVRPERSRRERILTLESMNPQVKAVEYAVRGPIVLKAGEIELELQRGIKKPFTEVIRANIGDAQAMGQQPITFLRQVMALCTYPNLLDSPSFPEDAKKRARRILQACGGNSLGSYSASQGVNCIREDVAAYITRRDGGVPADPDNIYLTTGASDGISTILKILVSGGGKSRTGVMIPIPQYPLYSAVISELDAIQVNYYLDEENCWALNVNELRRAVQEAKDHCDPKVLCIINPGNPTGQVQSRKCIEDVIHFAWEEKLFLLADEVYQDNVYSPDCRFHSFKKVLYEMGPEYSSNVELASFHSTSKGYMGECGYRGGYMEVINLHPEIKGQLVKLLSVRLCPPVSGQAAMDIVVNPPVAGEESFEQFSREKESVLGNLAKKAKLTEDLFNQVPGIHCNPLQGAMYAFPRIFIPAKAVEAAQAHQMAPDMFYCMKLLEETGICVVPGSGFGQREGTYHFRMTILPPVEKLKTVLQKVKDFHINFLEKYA
In short: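 Recombinant GPT2 (10ng/uL) with 250uM a-KG and 2mM L-alanine, 30 min at room temperature, in HEPES pH 7.5 buffer. Pyruvate detected by pyruvate oxidase/HRP/Amplex Red fluorescence after 30 min in the dark; AOA (50uM) as positive control.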
On the % scale 0 is the no-effect control and ±100 the full control effect; potency means the concentration at half of the fitted maximal effect; tags describe the fitted curve by direction and shape.

With `O=C(Cc1ccc(F)cc1)N1CCn2c(nnc2-c2ccccc2)C1` as the compound, how does the Potency read?
Its Potency is inconclusive [inhibitor, partial curve, poor fit].

How did the “activity change, negative = inhibition” value turn out when `CNC(=O)[C@@H]1C[C@H](Oc2ccccc2)CN1S(=O)(=O)c1cccs1` was run?
The value was inactive: -1.41%.

Which “outcome” value does the source give for `Cc1cc(=O)n(CC(=O)Nc2ccc(C)c(F)c2)c(N2CCc3ccccc3C2)n1` here?
Its value is “inactive”.

`O=C(NCc1ccc(F)cc1)C1COC2(CCCCC2)N1C(=O)c1cccc(F)c1` (stereo not drawn) was tested. Which “outcome” value did it give?
Its value is “inactive”.

Which Potency does the source give for `Nc1ccc(O)c(C(=O)O)c1` here?
The Potency was inconclusive [inhibitor, partial curve, poor fit].

Which “outcome” value does the source give for `Fc1cccc(CN2CCC(Oc3ccc(-c4noc(C5CC5)n4)cc3)C2)c1` (stereo not drawn) here?
Its value is “inactive”.

With `Cc1cc(NC(=O)C2=C(O)c3ccccc3S(=O)(=O)N2C)no1` as the compound, how does the Potency read?
Its Potency is inconclusive [inhibitor, single point].

How did the Potency turn out when `COc1ccc2c(c1)CCN=C2C[C@H]1CN(S(=O)(=O)C(C)C)CC[C@H]1CC(=O)O` was run?
The Potency was inconclusive [inhibitor, single point].

`CN(Cc1cccnc1)c1nc2c(c(=O)[nH]1)CCN(Cc1ccc(Cl)cc1F)CC2` was tested. Which Potency did it give?
The Potency was inconclusive [inhibitor, single point].

With `CCn1c(=O)c2ccnn2c2ccc(C(=O)NC3CCCCC3)cc21` as the compound, how does the Potency read?
The Potency was inconclusive [inhibitor, single point].

For `O=C(C1CCC1)N1CCC(Cc2nc(C3CCOCC3)no2)CC1`, which Potency is on record?
The Potency was inconclusive [inhibitor, single point].

With `Cc1ccc(CN2C[C@@H](CO)[C@H](c3nc(-c4ccncc4)no3)C2)cc1` as the compound, how does the “activity change, negative = inhibition” value read?
Its value is inactive: -18.6%.

How did the “activity change, negative = inhibition” value turn out when `Cc1ccc(C(=O)N2CCN(C(=O)c3nnn4c3COC(c3ccc(Cl)cc3)C4)CC2)c(C)c1` (stereo not drawn) was run?
The value was inactive: 0.621%.

Which “outcome” value does the source give for `COC(=O)C1=C(C)N=C2SC=C(CC(=O)NCCc3cccs3)N2C1c1ccccc1Cl` (stereo not drawn) here?
The value was “inactive”.

How did the “outcome” value turn out when `O=C(NCc1ccccc1Cl)c1ccc2nnc(Cc3ccco3)n2c1` was run?
Its value is “inactive”.

How did the Potency turn out when `O=C(O)CSc1cc(NS(=O)(=O)c2ccc(Br)cc2)c2ccccc2c1O` was run?
The Potency was inconclusive [inhibitor, full curve, poor fit].

`CCCCC1CCN(CCCN2C(=O)CCc3ccccc32)CC1` was tested. Which Potency did it give?
The Potency was inconclusive [inhibitor, single point].

Which “outcome” value does the source give for `C[S+](=O)([O-])N1CCN(Cc2ccccc2-c2ccccc2F)CC1` here?
Its value is “inactive”.

How did the Potency turn out when `CNC(=O)[C@@H](c1ccccc1)N1CCC[C@H]1C(=O)NC1CCOCC1` was run?
The Potency was inconclusive [inhibitor, single point].

Which “activity change, negative = inhibition” value does the source give for `Cc1nc2cccnc2n1CC1CCCN(S(=O)(=O)Cc2ccc(Cl)cc2)C1` (stereo not drawn) here?
Its value is inactive: -20.9%.

`COc1cc(-c2cn(C)c(=O)n3cc(COc4ccnn4C)nc23)ccn1` was tested. Which Potency did it give?
The Potency was inconclusive [inhibitor, single point].

For `O=C(O)C[C@@H]1CCN(C(=O)c2ccc(F)cc2)C[C@@H]1CCN1CCCCC1`, which Potency is on record?
Its Potency is inconclusive [inhibitor, partial curve, poor fit].

`COc1ccccc1CC(=O)NC1CCN(c2cc(C(F)(F)F)nc(C)n2)CC1` was tested. Which “outcome” value did it give?
The value was “inactive”.

How did the Potency turn out when `Cc1nc(-c2c3n(c(=O)n(Cc4ccccc4Cl)c2=O)CCCCC3)no1` was run?
Its Potency is inconclusive [inhibitor, single point].

How did the Potency turn out when `CN1CC(=O)N(C2CCCNC2)Cc2c(NCCCN3CCCCC3)ncnc21` (stereo not drawn) was run?
Its Potency is inconclusive [inhibitor, single point].

With `Cc1nc(CN2Cc3nc(-c4ccccc4F)ccc3OCC2=O)cs1` as the compound, how does the Potency read?
The Potency was inconclusive [inhibitor, single point].

`COc1ccccc1-c1ccc(CN2CCCCC2C(=O)NCCc2ccccc2)cc1` (stereo not drawn) was tested. Which “activity change, negative = inhibition” value did it give?
Its value is inactive: -8.42%.

`CCCCCCCCCCCCCCCCCCOC[C@H](COP(=O)([O-])OCC[N+](C)(C)C)OC` was tested. Which Potency did it give?
Its Potency is inconclusive [inhibitor, single point].

For `COc1ccc(Nc2cnc3ccc(-c4ccc(OC)c(OC)c4)nn23)cn1`, which Potency is on record?
Its Potency is inconclusive [inhibitor, single point].

For `c1ccc(-c2noc(-c3nc(C4CC4)no3)n2)cc1`, which “outcome” value is on record?
Its value is “inactive”.

`O=C1NCCCCCCN(Cc2ccncc2)[C@@H]2CN(C(=O)NCc3ccccc3)CC[C@@H]12` was tested. Which Potency did it give?
The Potency was inconclusive [inhibitor, single point].

Which “outcome” value does the source give for `O=C(CCc1ccc(CC2CCN(C(=O)c3cccs3)CC2)cc1)NC1CC1` here?
Its value is “inactive”.

With `COc1cc(N2CCN(C)CC2)ccc1Nc1nccc(-c2cn(C)c3cnccc23)n1` as the compound, how does the Potency read?
The Potency was active: 3.55 µM.

`CC1(CCCCc2ccccc2)COc2ccc(C(=O)NCCc3cnc[nH]3)cc2N1` (stereo not drawn) was tested. Which Potency did it give?
The Potency was inconclusive [inhibitor, single point].

Which Potency does the source give for `Cc1ccc(C(=O)N2C[C@@H](F)C[C@H]2C(=O)N2CCc3ccccc3C2)s1` here?
The Potency was inconclusive [inhibitor, single point].

Which Potency does the source give for `COc1ccc(Cl)cc1C(=O)N1CCCC(c2[nH]ccc2C(N)=O)C1` (stereo not drawn) here?
The Potency was inconclusive [inhibitor, single point].

With `O=C(NC1CCN(C(=O)N2CC3CC(C2)[C@H]2CCCC(=O)N2C3)CC1)c1n[nH]c(=O)c2ccccc12` (stereo partly drawn) as the compound, how does the “outcome” value read?
Its value is “inactive”.

For `COc1cc2c(cc1O)CC[C@@H]1[C@@H]2CC[C@]2(C)[C@@H](O)CC[C@@H]12`, which Potency is on record?
The Potency was inconclusive [inhibitor, partial curve].

`CCN1C(=O)C2CC3(CCN(C(=O)CCc4ccccc4)CC3)CN2C1=O` (stereo not drawn) was tested. Which Potency did it give?
The Potency was inconclusive [inhibitor, full curve, poor fit].

`COc1ccc(C2(C(=O)N3CC[C@H](CO)[C@H](NC(=O)C4CC4)C3)CC2)cc1` was tested. Which Potency did it give?
The Potency was inconclusive [inhibitor, single point].

Which “activity change, negative = inhibition” value does the source give for `Cc1nc(CC(=O)NC2CCCc3c2cnn3-c2ccc(C(C)(C)C)cc2)cs1` (stereo not drawn) here?
Its value is inactive: 0.198%.

Which Potency does the source give for `COc1ccc(OC2CN(C(=O)c3ccc(C)cc3)C2)cc1` here?
The Potency was inconclusive [inhibitor, full curve, poor fit].

Which Potency does the source give for `COc1ccc(CC(=O)Nc2ccc3c(c2)CN(Cc2ccc(OC)cc2OC)C(=O)C(C)O3)cc1` (stereo not drawn) here?
The Potency was inconclusive [inhibitor, partial curve, poor fit].
